Data set [1] deals with HeLa Kyoto. Put plainly: melting temperature (median over replicates), in situ; higher = more thermally stable.
Data set [2] has as its system HeLa Kyoto. Put plainly: solubility change mitosis vs G1/S (difference of NP-40 vs SDS log2 ratios) (log2 ratio difference); higher = more soluble in mitosis.
Data set [3] deals with HeLa Kyoto. In words: solubility in G1/S (NP-40 vs SDS abundance) (log2 ratio); higher = more soluble. As to conditions: cell cycle stage: G1/S.
Data set [4] concerns HeLa Kyoto. In words: thermal stability score vs G1/S (z-score of summed log2 fold changes over temperatures); higher = more thermally stable than in G1/S.
Where [5] appears, read: cell cycle stage: early G1 (4.5 h after nocodazole release).
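For melting temperature (median over replicates), in situ in this document: HeLa Kyoto cells synchronized by double thymidine or nocodazole block, proteins quantified by TMT10plex mass spectrometry, three independent biological replicates.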
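For solubility change mitosis vs G1/S (difference of NP-40 vs SDS log2 ratios) in this document: synchronized HeLa Kyoto cells (double thymidine block for G1/S, nocodazole release for mitosis), protein amounts in NP-40 versus SDS lysates quantified by mass spectrometry, three biological replicates.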
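For solubility in G1/S (NP-40 vs SDS abundance) in this document: HeLa Kyoto cells arrested at G1/S by double thymidine block, proteins quantified by TMT10plex mass spectrometry in mild NP-40 versus SDS extracts, three biological replicates.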
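For thermal stability score vs G1/S (z-score of summed log2 fold changes over temperatures) in this document: synchronized HeLa Kyoto cells, proteins quantified by TMT10plex mass spectrometry, three biological replicates, mitosis taken 0.5 h after nocodazole release, G1/S directly after double thymidine block.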

With ISG15 (sequence left out), the melting temperature in the data set on HeLa Kyoto [1] (cell cycle stage: G1/S) was 49.3 °C; in the data set with HeLa Kyoto [1] (cell cycle stage: mitosis), 49.9 °C. Further, the “solubility change mitosis (log2)” value with HeLa Kyoto [2] is 0.0549. In addition, in the data set with HeLa Kyoto [3], the “solubility in G1/S (log2)” value came out at 0.365. For the same substance, the results for the thermal stability score in the data set with HeLa Kyoto [4] (setting [5]) and with HeLa Kyoto [4] (cell cycle stage: mitosis) were 0.389 and 0.493, respectively.
For ITGA5 (sequence left out), the melting temperature in the data set on HeLa Kyoto [1] (cell cycle stage: G1/S) was found to be 55.6 °C; in the data set with HeLa Kyoto [1] (cell cycle stage: mitosis), 54.4 °C. In addition, the “solubility change mitosis (log2)” value in the data set on HeLa Kyoto [2] is -0.0814. For the same substance, in the data set on HeLa Kyoto [3], the “solubility in G1/S (log2)” value was 0.172. In addition, the thermal stability score with HeLa Kyoto [4] (setting [5]) was -3.86; with HeLa Kyoto [4] (cell cycle stage: mitosis) it was -3.3.
KRAS (sequence left out): the melting temperature in the data set with HeLa Kyoto [1] (cell cycle stage: G1/S) turned out to be 54.7 °C; with HeLa Kyoto [1] (cell cycle stage: mitosis) it was 58.1 °C. For the same substance, the “solubility change mitosis (log2)” value in the data set with HeLa Kyoto [2] was -0.0544. Besides, the “solubility in G1/S (log2)” value in the data set with HeLa Kyoto [3] was -0.0783. The results for the thermal stability score in the data set on HeLa Kyoto [4] (setting [5]) and in the data set on HeLa Kyoto [4] (cell cycle stage: mitosis) were -0.721 and -0.892, respectively.
Regarding LIG1 (sequence left out), the melting temperature with HeLa Kyoto [1] (cell cycle stage: G1/S) was found to be 48.7 °C; in the data set on HeLa Kyoto [1] (cell cycle stage: mitosis) it was 49.6 °C. In addition, the “solubility change mitosis (log2)” value in the data set with HeLa Kyoto [2] is -0.123. In addition, in the data set on HeLa Kyoto [3], the “solubility in G1/S (log2)” value was determined as 0.0711. For the same substance, the results for the thermal stability score in the data set with HeLa Kyoto [4] (setting [5]) and with HeLa Kyoto [4] (cell cycle stage: mitosis) were 2.64 and 4.21, respectively.
Consider “MAAPVVAPPGVVVSRANKRSGAGPGGSGGGGARGAEEEPPPPLQAVLVADSFDRRFFPISKDQPRVLLPLANVALIDYTLEFLTATGVQETFVFCCWKAAQIKEHLLKSKWCRPTSLNVVRIITSELYRSLGDVLRDVDAKALVRSDFLLVYGDVISNINITRALEEHRLRRKLEKNVSVMTMIFKESSPSHPTRCHEDNVVVAVDSTTNRVLHFQKTQGLRRFAFPLSLFQGSSDGVEVRYDLLDCHISICSPQVAQLFTDNFDYQTRDDFVR[skipping about 20 residues]VSNLHMYSAVCADVIRRWVYPLTPEANFTDSTTQSCTHSRHNIYRGPEVSLGHGSILEENVLLGSGTVIGSNCFITNSVIGPGCHIGDNVVLDQTYLWQGVRVAAGAQIHQSLLCDNAEVKERVTLKPRSVLTSQVVVGPNITLPEGSVISLHPPDAEEDEDDGEFSDDSGADQEKDKVKMKGYNPAEVGAAGKGYLWKAAGMNMEEEEELQQNLWGLKINMEEESESESEQSMDSEEPDSRGGSPQMDDIKVFQNEVLGTLQRGKEENISCDNLVLEINSLKYAYNISLKEVMQVLSHVVLEFPLQQMDSPLDSSRYCALLLPLLKAWSPVFRNYIKRAADHLEALAAIEDFFLEHEALGISMAKVLMAFYQLEILAEETILSWFSQRDTTDKGQQLRKNQQLQRFIQWLKEAEEESSEDD [EIF2B5]”, for which the melting temperature in the data set on HeLa Kyoto [1] (cell cycle stage: G1/S) was found to be 52 °C; in the data set with HeLa Kyoto [1] (cell cycle stage: mitosis), 51.4 °C. Further, the “solubility change mitosis (log2)” value in the data set on HeLa Kyoto [2] is -0.0413. The “solubility in G1/S (log2)” value in the data set with HeLa Kyoto [3] was -0.261. Moreover, the thermal stability score was -1.03 in the data set with HeLa Kyoto [4] (setting [5]) and -0.441 with HeLa Kyoto [4] (cell cycle stage: mitosis).
Take “MATANSIIVLDDDDEDEAAAQPGPSHPLPNAASPGAEAPSSSEPHGARGSSSSGGKKCYKLENEKLFEEFLELCKMQTADHPEVVPFLYNRQQRAHSLFLASAEFCNILSRVLSRARSRPAKLYVYINELCTVLKAHSAKKKLNLAPAATTSNEPSGNNPPTHLSLDPTNAENTASQ[skipping about 200 residues]ERKKRRARLQGTSSHSADTPEASLDSGEGPSGMASQGCPSASRAETDDEDDEESDEEEEEEEEEEEEEATDSEEEEDLEQMQEGQEDDEEEDEEEEAAAGKDGDKSPMSSLQISNEKNLEPGKQISRSSGEQQNKGRIVSPSLLSEEPLAPSSIDAESNGEQPEELTLEEESPVSQLFELEIEALPLDTPSSVETDISSSRKQSEEPFTTVLENGAGMVSSTSFNGGVSPHNWGDSGPPCKKSRKEKKQTGSGPLGNSYVERQRSVHEKNGKKICTLPSPPSPLASLAPVADSSTRVDSPSHGLVTSSLCIPSPARLSQTPHSQPPRPGTCKTSVATQCDPEEIIVLSDSD [DAXX]”: the melting temperature in the data set on HeLa Kyoto [1] (cell cycle stage: G1/S) was 46.6 °C; with HeLa Kyoto [1] (cell cycle stage: mitosis), 50.2 °C. For the same substance, the “solubility change mitosis (log2)” value in the data set with HeLa Kyoto [2] was found to be 0.0708. Also, the “solubility in G1/S (log2)” value in the data set with HeLa Kyoto [3] amounted to 0.0801. The values for the thermal stability score with HeLa Kyoto [4] (setting [5]) and with HeLa Kyoto [4] (cell cycle stage: mitosis) were 0.889 and 1.59, respectively.
In the case of MST1R (sequence left out), the melting temperature was determined as 51.8 °C with HeLa Kyoto [1] (cell cycle stage: G1/S) and 51 °C in the data set on HeLa Kyoto [1] (cell cycle stage: mitosis). The “solubility change mitosis (log2)” value with HeLa Kyoto [2] is -0.232. Further, in the data set with HeLa Kyoto [3], the “solubility in G1/S (log2)” value was found to be 0.0545. The thermal stability score in the data set with HeLa Kyoto [4] (setting [5]) stood at 0.464; in the data set on HeLa Kyoto [4] (cell cycle stage: mitosis), 0.663.

Source of the values: the supplement of paper PMC5998384.
